In PubChem BioAssay AID624170 (National Center for Advancing Translational Sciences (NCATS), 2012):
Among all 410,000 compounds or so, about 850 (0.21%) were called active. Inconclusive results, whose numbers are uncertain, are shown with a selection of clear calls. Calls come from the whole dose curve; as a rule, active = well fitted inhibition curve with a large enough effect; inconclusive = small, poorly fitted or top-dose-only effect, or another doubt; inactive = no such curve, though single readings can be large or run the other way. Potencies of inconclusive entries are left out as doubtful fits.

molecular target: Glutaminase kidney isoform, mitochondrial (Homo sapiens) (UniProt O94925); assay: qHTS for Inhibitors of Glutaminase (GLS); conditions: GLS enzymatic activity, qHTS titration; series mostly up to 45.5 µM
Description: Glutaminase (GLS) catalyzes the hydrolysis of glutamine into glutamate and ammonia. It plays a critical role in glutaminolysis, which is an important energy source for proliferating cells. It was shown that c-Myc, an oncogenic transcription factor known to regulate microRNAs and to stimulate cell proliferation, increases glutamine metabolism by stimulating the expression of GLS via direct suppression of miR23a and miR23b.
GLS is also thought to play a pathogenic role on HAD using a human HIV-1 infected macrophage system. […] GLS inhibition limits glutamate release and provides neuroprotection against HIV-1 infected macrophages.
The overall goal of this project is to identify small molecule inhibitors of GLS through quantitative high throughput screening (qHTS) of the MLSMR. A validated potent and selective inhibitor can be used as a tool molecule to further study the pharmacology of its target as well as explore its potential therapeutic application in cancer and inflammatory neurological disorders, such as HIV1-associated dementia (HAD) and multiple sclerosis.
NIH Chemical Genomics Center [NCGC]
NIH Molecular Libraries Probe Centers Network [MLPCN]
Assay Submitter (PI): Barbara S. Slusher, Johns Hopkins University
Three 3 uL of hKGA is dispensed into black well 1536-well plates in 45 mM KH2PO4 (pH 8.2), 0.02% Tween-20. Then 23 nL of compounds are added through pin tool transfer. To this, 1 uL of 1mM L-Glutamine and 1 uL of a solution of L-Glutamateoxidase, HRP, Amplex red are added. Plate is centrifuged for 25 sec before an initial fluorescence read is obtained on the ViewLux, after 30 min of RT incubation, the final read is taken on the ViewLux.
Potency is the fitted concentration of half-maximal effect; tags give direction and shape of the fitted curve.

UniProt O94925, sequence (O94925 whole entry, looked up, canonical isoform): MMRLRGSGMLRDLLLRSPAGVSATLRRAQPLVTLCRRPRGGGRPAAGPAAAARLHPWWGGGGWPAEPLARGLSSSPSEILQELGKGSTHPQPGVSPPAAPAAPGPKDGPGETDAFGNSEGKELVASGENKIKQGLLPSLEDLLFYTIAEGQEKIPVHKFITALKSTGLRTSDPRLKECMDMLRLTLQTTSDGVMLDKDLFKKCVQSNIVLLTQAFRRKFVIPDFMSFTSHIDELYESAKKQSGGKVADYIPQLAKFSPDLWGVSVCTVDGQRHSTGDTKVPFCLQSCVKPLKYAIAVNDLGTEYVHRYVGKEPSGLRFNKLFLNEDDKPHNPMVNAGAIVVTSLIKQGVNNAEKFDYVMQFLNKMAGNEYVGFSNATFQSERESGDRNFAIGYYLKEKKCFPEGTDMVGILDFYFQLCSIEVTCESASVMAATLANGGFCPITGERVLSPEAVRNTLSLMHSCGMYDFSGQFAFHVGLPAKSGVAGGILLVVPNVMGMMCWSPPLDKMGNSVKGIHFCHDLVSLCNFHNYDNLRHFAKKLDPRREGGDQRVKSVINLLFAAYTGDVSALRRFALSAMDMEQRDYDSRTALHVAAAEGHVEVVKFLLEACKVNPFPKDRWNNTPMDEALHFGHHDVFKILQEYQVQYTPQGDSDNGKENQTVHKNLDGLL

| SMILES | Potency |
| --- | --- |
| CNC(=S)NNC(=O)c1ccc(N(C)C)cc1 | inconclusive [inhibitor, single point] |
| CC(C)C1OC2(C)OC(=N)C1(C#N)C(C#N)(C#N)C2c1ccccc1 (centres undefined) | inconclusive [inhibitor, single point] |
| CC(=O)c1ccccc1NS(=O)(=O)c1cc2c(cc1C)NC(=O)CO2 | inactive |
| CCOC(=O)c1cccc(NC(=O)C2CCCN(c3nnc(N4CCCC4=O)s3)C2)c1 (centres undefined) | inconclusive [inhibitor, single point] |
| Cc1occc1C(=O)Nc1c(Cl)cccc1Cl | inactive |
| Cc1c(OCC(=O)NC(Cc2ccc(Cl)cc2)C(=O)O)ccc2c1oc(=O)c1ccccc12 (centres undefined) | inconclusive [inhibitor, single point] |
| COc1ccc(-c2cc(C(=O)Nc3ccccc3SC)no2)cc1 | inconclusive [inhibitor, single point] |
| CC/C(O)=C(\C#N)c1nnc2n1CCCCC2 | inconclusive [inhibitor, partial curve, poor fit] |
| CC(C)(C)c1ccc(C(=O)NC(=S)Nc2sc3c(c2C#N)CCC3)cc1 | inactive |
| O=C(CCC1CCN(C(=O)c2cncs2)CC1)Nc1ccccc1 | inconclusive [inhibitor, single point] |
| CC(C)(C)c1csc(N/N=C/c2cccnc2)n1 | active: 11.2 µM |
| CCOC1=CC2=C(C(=O)C(Cl)=CC2=O)[C@@H]2CN(S(=O)(=O)c3ccc(C)cc3)[C@@H](c3ccccc3)[C@H]12 | inconclusive [inhibitor, full curve, poor fit] |
| C/C(=N/NC(=O)c1cc2ccccc2cc1O)C1C(=O)c2ccccc2C1=O | inconclusive [inhibitor, single point] |
| CCOC(=O)NC1(NCc2ccccc2)Oc2ccccc2O1 | inconclusive [inhibitor, single point] |
| CCOc1ccc(NC(=O)NC(C)c2c(-n3cccc3)sc3c2CCN(CC)C3)cc1 (centres undefined) | inconclusive [inhibitor, single point] |
| COc1ccccc1-n1cnnc1SCC(=O)Nc1ncc(Cl)cc1Cl | inactive |
| Cc1ccn2c(c1)nc(=O)c1cc(S(=O)(=O)N3CCCCC3)ccc12 | inconclusive [inhibitor, single point] |
| Cc1cc(C)c(O)c(NC(=S)NC(=O)Cc2ccccc2)c1 | inconclusive [inhibitor, partial curve] |
| COc1ccc(OC)c(S(=O)(=O)Nc2ccccc2O)c1 | active: 10 µM |
